Results from PMC7454948.
These are yes or no findings as the source states them, for the method shown. In cells and extracts the contact can be indirect. Some results given as binding are weak or reduced against the parent protein; the word gives no strength. Sequences can lack the tags named with a protein.

What was measured:
[1] = molecular target: T1, GST-Sgo1 N51I (S. cerevisiae) (UniProt Q08490); test: pull-down; GST-Sgo1 proteins (100 ug) on glutathione magnetic beads, rotated with yeast lysate 2 h at 4°C; eluates immunoblotted with anti-FLAG (Ycg1), anti-HA (Smc2), anti-MYC (Rts1); only the target purified
T1 sequence: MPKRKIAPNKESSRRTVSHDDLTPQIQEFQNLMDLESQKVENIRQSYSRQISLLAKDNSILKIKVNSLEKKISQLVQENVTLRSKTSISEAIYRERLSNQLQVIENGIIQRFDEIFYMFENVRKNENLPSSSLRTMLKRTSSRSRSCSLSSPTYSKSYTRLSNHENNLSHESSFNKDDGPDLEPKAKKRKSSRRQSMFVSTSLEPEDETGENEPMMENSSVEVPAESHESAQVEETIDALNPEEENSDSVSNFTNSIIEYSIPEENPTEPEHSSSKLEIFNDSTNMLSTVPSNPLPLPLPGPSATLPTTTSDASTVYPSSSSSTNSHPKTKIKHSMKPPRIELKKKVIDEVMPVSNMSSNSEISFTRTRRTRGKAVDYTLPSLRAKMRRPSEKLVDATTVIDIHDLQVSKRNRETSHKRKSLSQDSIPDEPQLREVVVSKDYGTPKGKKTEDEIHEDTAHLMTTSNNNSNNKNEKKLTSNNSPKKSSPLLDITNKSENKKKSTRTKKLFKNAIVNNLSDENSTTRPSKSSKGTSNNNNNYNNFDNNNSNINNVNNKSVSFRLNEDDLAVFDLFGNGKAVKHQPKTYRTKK

[2] = molecular target: T2, GST-Sgo1 137–163 (S. cerevisiae); test: as above
T2 sequence: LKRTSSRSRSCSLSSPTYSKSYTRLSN

[3] = molecular target: T3, GST-Sgo1 101–200 (S. cerevisiae) (UniProt Q08490); test: as above
T3 sequence: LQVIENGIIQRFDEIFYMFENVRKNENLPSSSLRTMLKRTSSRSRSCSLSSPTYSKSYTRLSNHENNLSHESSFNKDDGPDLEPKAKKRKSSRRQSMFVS

[4] = molecular target: T4, GST-Sgo1wt (full length Sgo1-GST) (S. cerevisiae) (UniProt Q08490); test: as above
T4 sequence: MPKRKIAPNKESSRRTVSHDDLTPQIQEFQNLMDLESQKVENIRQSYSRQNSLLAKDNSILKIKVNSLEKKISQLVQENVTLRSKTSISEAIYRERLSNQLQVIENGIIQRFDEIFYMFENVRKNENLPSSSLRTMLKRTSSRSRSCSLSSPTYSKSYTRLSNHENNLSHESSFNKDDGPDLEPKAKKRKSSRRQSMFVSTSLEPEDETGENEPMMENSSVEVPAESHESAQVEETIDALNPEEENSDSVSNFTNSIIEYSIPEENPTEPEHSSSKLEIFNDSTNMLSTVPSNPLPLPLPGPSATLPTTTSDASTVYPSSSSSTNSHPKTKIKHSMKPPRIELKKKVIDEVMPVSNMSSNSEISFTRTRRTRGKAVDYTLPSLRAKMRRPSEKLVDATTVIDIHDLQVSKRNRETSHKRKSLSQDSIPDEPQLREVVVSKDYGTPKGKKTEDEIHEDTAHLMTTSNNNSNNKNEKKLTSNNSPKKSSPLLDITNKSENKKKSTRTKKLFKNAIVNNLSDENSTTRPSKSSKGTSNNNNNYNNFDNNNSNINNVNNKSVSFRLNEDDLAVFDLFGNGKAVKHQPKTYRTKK

[5] = molecular target: T5, GST-Sgo1 1–163 (S. cerevisiae) (UniProt Q08490); test: as above
T5 sequence: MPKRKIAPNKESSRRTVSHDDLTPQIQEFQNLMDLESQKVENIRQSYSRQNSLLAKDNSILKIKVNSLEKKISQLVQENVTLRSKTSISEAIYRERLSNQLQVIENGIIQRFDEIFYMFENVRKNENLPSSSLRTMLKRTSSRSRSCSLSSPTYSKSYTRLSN

[6] = molecular target: T6, Smc2-TEV-HaloTag-TwinStrep (S. cerevisiae) (UniProt P38989); test: pull-down; condensin purified from yeast lysate on StrepTactin Sepharose via TwinStrep-tagged Smc2, eluted with 2 mM biotin; Smc4-V5-His6 in the preparation detected with anti-V5
T6 sequence: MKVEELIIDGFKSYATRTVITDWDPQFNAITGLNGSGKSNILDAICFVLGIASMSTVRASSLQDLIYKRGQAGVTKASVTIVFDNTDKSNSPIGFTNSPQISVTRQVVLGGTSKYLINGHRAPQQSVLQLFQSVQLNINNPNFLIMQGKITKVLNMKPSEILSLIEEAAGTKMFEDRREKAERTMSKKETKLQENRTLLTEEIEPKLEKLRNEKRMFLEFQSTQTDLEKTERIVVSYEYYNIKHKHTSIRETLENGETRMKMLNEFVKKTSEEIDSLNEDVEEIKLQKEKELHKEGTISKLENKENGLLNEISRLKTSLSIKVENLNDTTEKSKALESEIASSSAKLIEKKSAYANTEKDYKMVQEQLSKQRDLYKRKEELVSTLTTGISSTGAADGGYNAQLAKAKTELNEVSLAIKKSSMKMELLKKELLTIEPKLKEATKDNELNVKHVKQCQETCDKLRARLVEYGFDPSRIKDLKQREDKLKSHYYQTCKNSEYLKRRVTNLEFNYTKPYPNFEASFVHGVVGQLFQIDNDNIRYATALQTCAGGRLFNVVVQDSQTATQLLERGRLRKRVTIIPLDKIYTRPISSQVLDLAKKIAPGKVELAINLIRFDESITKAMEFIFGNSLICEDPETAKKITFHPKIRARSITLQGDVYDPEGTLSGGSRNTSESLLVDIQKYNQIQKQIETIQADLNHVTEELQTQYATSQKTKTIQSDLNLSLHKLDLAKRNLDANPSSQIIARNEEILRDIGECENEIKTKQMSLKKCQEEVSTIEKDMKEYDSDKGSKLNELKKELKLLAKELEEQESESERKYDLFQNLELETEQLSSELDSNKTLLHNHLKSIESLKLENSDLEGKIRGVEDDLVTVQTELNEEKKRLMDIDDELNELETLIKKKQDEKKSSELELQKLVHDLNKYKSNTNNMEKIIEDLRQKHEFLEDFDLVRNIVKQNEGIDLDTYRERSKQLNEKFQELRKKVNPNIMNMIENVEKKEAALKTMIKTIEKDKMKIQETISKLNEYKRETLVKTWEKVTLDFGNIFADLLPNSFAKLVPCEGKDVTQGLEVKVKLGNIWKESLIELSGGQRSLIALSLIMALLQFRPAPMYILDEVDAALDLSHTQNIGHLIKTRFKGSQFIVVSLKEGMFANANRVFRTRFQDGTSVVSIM

B1: Smc2-6HA (protein, UniProt P38989 1-1170)
chain: MKVEELIIDGFKSYATRTVITDWDPQFNAITGLNGSGKSNILDAICFVLGIASMSTVRASSLQDLIYKRGQAGVTKASVTIVFDNTDKSNSPIGFTNSPQISVTRQVVLGGTSKYLINGHRAPQQSVLQLFQSVQLNINNPNFLIMQGKITKVLNMKPSEILSLIEEAAGTKMFEDRREKAERTMSKKETKLQENRTLLTEEIEPKLEKLRNEKRMFLEFQSTQTDLEKTERIVVSYEYYNIKHKHTSIRETLENGETRMKMLNEFVKKTSEEIDSLNEDVEEIKLQKEKELHKEGTISKLENKENGLLNEISRLKTSLSIKVENLNDTTEKSKALESEIASSSAKLIEKKSAYANTEKDYKMVQEQLSKQRDLYKRKEELVSTLTTGISSTGAADGGYNAQLAKAKTELNEVSLAIKKSSMKMELLKKELLTIEPKLKEATKDNELNVKHVKQCQETCDKLRARLVEYGFDPSRIKDLKQREDKLKSHYYQTCKNSEYLKRRVTNLEFNYTKPYPNFEASFVHGVVGQLFQIDNDNIRYATALQTCAGGRLFNVVVQDSQTATQLLERGRLRKRVTIIPLDKIYTRPISSQVLDLAKKIAPGKVELAINLIRFDESITKAMEFIFGNSLICEDPETAKKITFHPKIRARSITLQGDVYDPEGTLSGGSRNTSESLLVDIQKYNQIQKQIETIQADLNHVTEELQTQYATSQKTKTIQSDLNLSLHKLDLAKRNLDANPSSQIIARNEEILRDIGECENEIKTKQMSLKKCQEEVSTIEKDMKEYDSDKGSKLNELKKELKLLAKELEEQESESERKYDLFQNLELETEQLSSELDSNKTLLHNHLKSIESLKLENSDLEGKIRGVEDDLVTVQTELNEEKKRLMDIDDELNELETLIKKKQDEKKSSELELQKLVHDLNKYKSNTNNMEKIIEDLRQKHEFLEDFDLVRNIVKQNEGIDLDTYRERSKQLNEKFQELRKKVNPNIMNMIENVEKKEAALKTMIKTIEKDKMKIQETISKLNEYKRETLVKTWEKVTLDFGNIFADLLPNSFAKLVPCEGKDVTQGLEVKVKLGNIWKESLIELSGGQRSLIALSLIMALLQFRPAPMYILDEVDAALDLSHTQNIGHLIKTRFKGSQFIVVSLKEGMFANANRVFRTRFQDGTSVVSIM
- binding [1]: binds
- binding [2]: no binding
- binding [3]: no binding
- binding [4]: binds
- binding [5]: binds

B2: Smc4-V5-His6 (protein, UniProt Q12267 1-1418)
chain: MSDSPLSKRQKRKSAQEPELSLDQGDAEEDSQVENRVNLSENTPEPDLPALEASYSKSYTPRKLVLSSGENRYAFSQPTNSTTTSLHVPNLQPPKTSSRGRDHKSYSQSPPRSPGRSPTRRLELLQLSPVKNSRVELQKIYDRHQSSSKQQSRLFINELVLENFKSYAGKQVVGPFHTSFSAVVGPNGSGKSNVIDSMLFVFGFRANKMRQDRLSDLIHKSEAFPSLQSCSVAVHFQYVIDESSGTSRIDEEKPGLIITRKAFKNNSSKYYINEKESSYTEVTKLLKNEGIDLDHKRFLILQGEVENIAQMKPKAEKESDDGLLEYLEDIIGTANYKPLIEERMGQIENLNEVCLEKENRFEIVDREKNSLESGKETALEFLEKEKQLTLLRSKLFQFKLLQSNSKLASTLEKISSSNKDLEDEKMKFQESLKKVDEIKAQRKEIKDRISSCSSKEKTLVLERRELEGTRVSLEERTKNLVSKMEKAEKTLKSTKHSISEAENMLEELRGQQTEHETEIKDLTQLLEKERSILDDIKLSLKDKTKNISAEIIRHEKELEPWDLQLQEKESQIQLAESELSLLEETQAKLKKNVETLEEKILAKKTHKQELQDLILDLKKKLNSLKDERSQGEKNFTSAHLKLKEMQKVLNAHRQRAMEARSSLSKAQNKSKVLTALSRLQKSGRINGFHGRLGDLGVIDDSFDVAISTACPRLDDVVVDTVECAQHCIDYLRKNKLGYARFILLDRLRQFNLQPISTPENVPRLFDLVKPKNPKFSNAFYSVLRDTLVAQNLKQANNVAYGKKRFRVVTVDGKLIDISGTMSGGGNHVAKGLMKLGTNQSDKVDDYTPEEVDKIERELSERENNFRVASDTVHEMEEELKKLRDHEPDLESQISKAEMEADSLASELTLAEQQVKEAEMAYVKAVSDKAQLNVVMKNLERLRGEYNDLQSETKTKKEKIKGLQDEIMKIGGIKLQMQNSKVESVCQKLDILVAKLKKVKSASKKSGGDVVKFQKLLQNSERDVELSSDELKVIEEQLKHTKLALAENDTNMNETLNLKVELKEQSEQLKEQMEDMEESINEFKSIEIEMKNKLEKLNSLLTYIKSEITQQEKGLNELSIRDVTHTLGMLDDNKMDSVKEDVKNNQELDQEYRSCETQDESEIKDAETSCDNYHPMNIDETSDEVSRGIPRLSEDELRELDVELIESKINELSYYVEETNVDIGVLEEYARRLAEFKRRKLDLNNAVQKRDEVKEQLGILKKKRFDEFMAGFNIISMTLKEMYQMITMGGNAELELVDSLDPFSEGVTFSVMPPKKSWRNITNLSGGEKTLSSLALVFALHKYKPTPLYVMDEIDAALDFRNVSIVANYIKERTKNAQFIVISLRNNMFELAQQLVGVYKRDNRTKSTTIKNIDILNRT
- binding [6]: binds
